# The supplement of paper PMC3334620
# Whole data set: some 33,000 sequences, median “E-score (-0.5 to 0.5)” near -0.041, cut for the highest 2% near 0.37. This is one part of the list.
# Biological target: T1, Ecm22 (UniProt Q05958)
# T1 sequence: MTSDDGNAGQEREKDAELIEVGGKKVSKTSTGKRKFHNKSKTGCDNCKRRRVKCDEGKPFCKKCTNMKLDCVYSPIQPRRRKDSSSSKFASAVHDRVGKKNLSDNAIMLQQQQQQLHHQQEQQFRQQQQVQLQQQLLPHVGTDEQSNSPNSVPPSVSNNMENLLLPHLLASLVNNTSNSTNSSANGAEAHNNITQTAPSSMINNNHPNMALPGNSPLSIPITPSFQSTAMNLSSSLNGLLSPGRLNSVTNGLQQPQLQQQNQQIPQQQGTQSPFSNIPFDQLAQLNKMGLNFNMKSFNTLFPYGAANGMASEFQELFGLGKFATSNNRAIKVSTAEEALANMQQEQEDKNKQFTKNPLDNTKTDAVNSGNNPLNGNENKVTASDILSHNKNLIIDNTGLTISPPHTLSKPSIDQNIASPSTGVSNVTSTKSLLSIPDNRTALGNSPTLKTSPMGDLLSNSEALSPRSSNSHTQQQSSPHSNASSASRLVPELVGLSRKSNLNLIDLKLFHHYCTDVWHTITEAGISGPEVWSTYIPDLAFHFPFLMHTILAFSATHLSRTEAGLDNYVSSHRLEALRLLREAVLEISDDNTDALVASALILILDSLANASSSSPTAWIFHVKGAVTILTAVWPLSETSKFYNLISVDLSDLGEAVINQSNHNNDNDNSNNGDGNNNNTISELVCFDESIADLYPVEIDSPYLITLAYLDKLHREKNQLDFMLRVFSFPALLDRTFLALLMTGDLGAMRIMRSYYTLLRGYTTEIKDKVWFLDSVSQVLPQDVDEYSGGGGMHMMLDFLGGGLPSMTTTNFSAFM
# Assay: PBM E-score (8-mer binding enrichment) (E-score (-0.5 to 0.5)); higher = stronger / more preferred TF binding; most listed sequences are background and not binding sites
# Settings: protein concentration: 200 nM; construct: GST-full length
# How it was run: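 Detection of bound protein used fluorescent anti-GST, with scans normalised by masliner. The proteins were GST-tagged yeast transcription factors applied at about 100-200 nM to universal all-10-mer Agilent arrays made double-stranded by primer extension. Each ungapped eight-base word, pooled with its reverse complement, was scored with an E-score from the Universal PBM Analysis Suite.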
row,Sequence,PBM E-score
1,GCCTCTCA,-0.121
2,CATCCCGA,-0.0338
3,GGCTGGGA,-0.0886
4,TCGTTAGA,0.314
5,CTGTTGGC,-0.208
6,ACGAGTGA,0.34
7,ACAACATG,0.16
8,AGTTCTAT,0.0858
9,ATGCGGAG,-0.132
10,CGATACTC,0.183
11,CCGTGAGG,-0.373
12,CCCAGGCA,-0.356
13,AACCTCTC,-0.26
14,AGACGTAC,0.177
15,AACGGCCG,0.23
16,TCGATCGA,-0.00294
17,ACATTTAG,-0.231
18,AATCCTGG,-0.243
19,GATAGGTA,-0.00683
20,GCTCGCGA,0.283
21,CGCCGTGC,-0.239
22,CATGCCAG,-0.154

row,Sequence,PBM E-score
1,CGCTTAGA,0.231
2,GTTCTCTA,0.127
3,GAAGGTGC,-0.0545
4,AAACCCTT,-0.119
5,CATCGCCA,-0.11
6,GATATCTA,0.032
7,AGCGTTAT,-0.0408
8,ACGATGTC,0.237
9,AACTGGCC,-0.0821
10,CCAAGATA,-0.0891
11,AGCTACAC,-0.0236
12,CTTCTCGC,0.225
13,CGGCTGAC,0.0527
14,GATACAGA,0.00964
15,ACGAATCG,0.354
16,CGGTTGCA,-0.06
17,CGGAGCCG,0.156
18,AGCGAACG,0.296
19,CGTTTCTA,0.253
20,ATTTCGCC,0.131
21,GATACCTA,0.119
22,ATCATGAG,0.0728

row,Sequence,PBM E-score
1,CCCACGAA,0.0243
2,CTTAGGAC,-0.131
3,TACTAGCA,0.0755
4,AGTGTTTG,0.0855
5,TCCAGTAA,-0.171
6,CCTCAAGG,-0.249
7,TGGCGTAA,0.0429
8,AGGCGTGA,-0.0388
9,CAAGGCAG,-0.298
10,AAAGAGGC,0.0837
11,CGATCCAC,0.201
12,ATGCAGGC,-0.172
13,ATTCCACC,-0.104
14,ACTGACAC,-0.0886
15,AAGGGAAT,-0.0433
16,GAGCCGAA,0.0885
17,ATCGAAGA,0.0933
18,GCCCCCAC,-0.354
19,CTCCTCTC,-0.0778
20,TTCCACAA,-0.0103
21,TACAGCCA,-0.127
22,CGTAATAA,0.247

row,Sequence,PBM E-score
1,CGCACTAA,0.212
2,ACGAGGAC,0.42
3,CGTATCGC,0.35
4,CGGATCAC,0.0711
5,GCCTTACA,-0.112
6,TATACGGA,0.439
7,CCCTTTAA,-0.0773
8,AGACAGCC,-0.0609
9,CCACCGTC,-0.179
10,TATGCTAA,-0.0579
11,AGTAAGCG,0.0638
12,AAGTTCTC,0.0253
13,AAGTACCG,0.152
14,CACGCCTG,-0.335
15,CTGAACGA,0.456
16,ATGCCGTA,0.335
17,CGCATTGC,0.00365
18,GTCACATA,0.033
19,AACCGATC,0.174
20,CTCCGGCC,-0.256
